Data on twelve molecules can be found in the supplement of paper PMC4604168 (melanoma cell lines).

The other results are listed elsewhere or left out. Most values come without repeats; read them as rough.
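Further: cell number obtained by counting DAPI-stained nuclei in high-throughput microscope images with image analysis software, screen run in 1,536-well plates.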

For this test, the system named is C32. Description: cell count relative to DMSO control; melanoma cells; higher = more viable cells. To be noted: library dose: low library concentration; 72 h.
Take `CCN(CC)CCNC(=O)c1c(C)[nH]c(/C=C2\C(=O)Nc3ccc(F)cc32)c1C` [sunitinib] + CC(=O)c1c(C)c2cnc(Nc3ccc(N4CCNCC4)cn3)nc2n(C2CCCC2)c1=O [palbociclib] (first compound 0.4 µM, partner dose 0.04 µM): the cell count was found to be 71.6%.

In turn, `C[C@]1(O)C[C@@H](c2nc(-c3ccc4ccc(-c5ccccc5)nc4c3)c3c(N)nccn32)C1` + CNC(=O)c1cc(Oc2ccc(NC(=O)Nc3ccc(Cl)c(C(F)(F)F)c3)cc2)ccn1 [sorafenib] (first compound 0.4 µM, partner dose 0.4 µM) yielded a cell count of 86.5%.

In the case of `Cn1cnc2c(F)c(Nc3ccc(Br)cc3Cl)c(C(=O)NOCCO)cc21` [selumetinib] + COc1ccc(Cl)c(Nc2nc3ccccc3nc2NS(=O)(=O)c2cccc(NC(=O)C(C)(C)N)c2)c1 [XL147] (first compound 0.015 µM, partner dose 0.8 µM), the cell count is 68.6%.

`Cn1cnc2c(F)c(Nc3ccc(Br)cc3Cl)c(C(=O)NOCCO)cc21` [selumetinib] + CN(c1ncccc1CNc1nc(Nc2ccc3c(c2)CC(=O)N3)ncc1C(F)(F)F)S(C)(=O)=O [PF562271] (first compound 0.015 µM, partner dose 0.08 µM) came in with a cell count of 95.2%.

As to `C[C@]1(O)C[C@@H](c2nc(-c3ccc4ccc(-c5ccccc5)nc4c3)c3c(N)nccn32)C1` + CCCCCCCCc1ccc(CCC(N)(CO)CO)cc1 [fingolimod] (first compound 0.4 µM, partner dose 2 µM), the cell count is 90.7%.

Molecule `Cn1cnc2c(F)c(Nc3ccc(Br)cc3Cl)c(C(=O)NOCCO)cc21` [selumetinib] + CCCCCCCCc1ccc(CCC(N)(CO)CO)cc1 [fingolimod] (first compound 0.015 µM, partner dose 2 µM) returned a cell count of 81.7%.

For `CCN(CC)CCNC(=O)c1c(C)[nH]c(/C=C2\C(=O)Nc3ccc(F)cc32)c1C` [sunitinib] + CN1CCN(c2ccc3nc(-c4c(N)c5c(F)cccc5[nH]c4=O)[nH]c3c2)CC1 [Dovitinib] (first compound 0.4 µM, partner dose 0.1 µM), the cell count is 85%.

`Cn1cnc2c(F)c(Nc3ccc(Br)cc3Cl)c(C(=O)NOCCO)cc21` [selumetinib] + Cn1c(Nc2ccc(C(F)(F)F)cc2)nc2cc(Oc3ccnc(-c4ncc(C(F)(F)F)[nH]4)c3)ccc21 [CHIR265] (first compound 0.015 µM, partner dose 0.08 µM) gave a cell count of 77.1%.

Turning to `COc1cc([C@@H]2c3cc4c(cc3[C@@H](O[C@@H]3O[C@@H]5CO[C@@H](C)O[C@H]5[C@H](O)[C@H]3O)[C@H]3COC(=O)[C@H]23)OCO4)cc(OC)c1O` [etoposide] + O=C(Nc1cc(C(F)(F)F)cc(C(F)(F)F)c1)c1cc(Cl)ccc1O [IMD0354] (first compound 0.02 µM, partner dose 0.016 µM), the cell count is 84.4%.

The molecule `CCN(CC)CCNC(=O)c1c(C)[nH]c(/C=C2\C(=O)Nc3ccc(F)cc32)c1C` [sunitinib] + CC(=O)O[C@@]12CO[C@@H]1C[C@H](O)[C@@]1(C)C(=O)[C@H](O)C3=C(C)[C@@H](OC(=O)[C@H](O)[C@@H](NC(=O)OC(C)(C)C)c4ccccc4)C[C@@](O)([C@@H](OC(=O)c4ccccc4)[C@H]21)C3(C)C [Docetaxel] (first compound 0.4 µM, partner dose 0.0001 µM) had a cell count of 106%.

For `C[C@]1(O)C[C@@H](c2nc(-c3ccc4ccc(-c5ccccc5)nc4c3)c3c(N)nccn32)C1` + CN1CCN(c2ccc3nc(-c4c(N)c5c(F)cccc5[nH]c4=O)[nH]c3c2)CC1 [Dovitinib] (first compound 0.4 µM, partner dose 0.1 µM), the cell count worked out at 107%.

`C[C@]1(O)C[C@@H](c2nc(-c3ccc4ccc(-c5ccccc5)nc4c3)c3c(N)nccn32)C1` + CC(C)C[C@H](NC(=O)[C@H](Cc1ccccc1)NC(=O)c1cnccn1)B(O)O [Bortezomib] (first compound 0.4 µM, partner dose 0.001 µM): the cell count was found to be 107%.
